# The supplement of paper PMC8728848
# The list shows a part of the results.
# B1: GALT1 615 (Arabidopsis thaliana), Q8L7F9 (protein)
# chain: DPMRGSHHHHHHGMASMTGGQQMGRDLYDDDDKSRLQKPYITAAASVVVTPNTTLPMEWLRITLPDFMKEARNTQEAISGDDIAVVSGLFVEQNVSKEEREPLLTWNRLESLVDNAQSLVNGVDAIKEAGIVWESLVSAVEAKKLVDVNENQTRKGKEELCPQFLSKMNATEADGSSLKLQIPCGLTQGSSITVIGIPDGLVGSFRIDLTGQPLPGEPDPPIIVHYNVRLLGDKSTEDPVIVQNSWTASQDWGAEERCPKFDPDMNKKVDDLDECNKMVGGEINRTSSTSLQSNTSRGVPVAREASKHEKYFPFKQGFLSVATLRVGTEGMQMTVDGKHITSFAFRDTLEPWLVSEIRITGDFRLISILA
# Columns and labels:
# Assay in all cases: glycan array binding signal (z-score within array); higher = stronger binding
# Details in all cases: glycan notation: IUPAC condensed, linker removed
# Gal(a1-2)Gal = target: Gal(a1-2)Gal
# Method in brief: (§1)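 Columns mapping to the same glycan were averaged after glycan names were converted to IUPAC-condensed notation. The data come from 3228 arrays in the Consortium for Functional Glycomics database, limited to those with an available protein sequence. Binding is reported as a within-array Z-score averaged across arrays of one protein sequence and across linkers.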
# Gal(a1-3)Gal = target: Gal(a1-3)Gal
# Method in brief: as §1
# Gal(a1-3)Gal(b1-3)GlcNAc = target: Gal(a1-3)Gal(b1-3)GlcNAc
# Method in brief: as §1
# Gal(a1-3)Gal(b1-4)Glc = target: Gal(a1-3)Gal(b1-4)Glc
# Method in brief: as §1
# Gal(a1-3)Gal(b1-4)GlcNAc = target: Gal(a1-3)Gal(b1-4)GlcNAc
# Method in brief: as §1
# [1] = target: Gal(a1-3)Gal(b1-4)[Fuc(a1-3)]GlcNAc
# Method in brief: as §1
# [2] = target: Gal(a1-3)Gal(b1-4)[Fuc(a1-3)]GlcNAc(b1-2)Man(a1-3)[Gal(a1-3)Gal(b1-4)[Fuc(a1-3)]GlcNAc(b1-2)Man(a1-6)]Man(b1-4)GlcNAc(b1-4)GlcNAc
# Method in brief: as §1
# Gal(a1-3)GalNAc = target: Gal(a1-3)GalNAc
# Method in brief: as §1
# [3] = target: Gal(a1-3)[Gal(a1-4)]Gal(b1-4)GlcNAc
# Method in brief: as §1
# Gal(a1-4)Gal(b1-4)Glc = target: Gal(a1-4)Gal(b1-4)Glc
# Method in brief: as §1
# Gal(a1-4)Gal(b1-4)GlcNAc = target: Gal(a1-4)Gal(b1-4)GlcNAc
# Method in brief: as §1
# [4] = target: Gal(a1-4)Gal(b1-4)GlcNAc(b1-3)Gal(b1-4)Glc
# Method in brief: as §1
# Gal(a1-4)GlcNAc = target: Gal(a1-4)GlcNAc
# Method in brief: as §1
# Gal(a1-6)Glc = target: Gal(a1-6)Glc
# Method in brief: as §1
# Gal(b1-2)Gal = target: Gal(b1-2)Gal
# Method in brief: as §1
# Gal(b1-3)Gal = target: Gal(b1-3)Gal
# Method in brief: as §1
# Gal(b1-3)Gal(b1-4)GlcNAc = target: Gal(b1-3)Gal(b1-4)GlcNAc
# Method in brief: as §1
# [5] = target: Gal(b1-3)Gal(b1-4)GlcNAc(b1-2)Man(a1-3)[Gal(b1-3)Gal(b1-4)GlcNAc(b1-2)Man(a1-6)]Man(b1-4)GlcNAc(b1-4)GlcNAc
# Method in brief: as §1
# Gal(b1-3)GalNAc = target: Gal(b1-3)GalNAc
# Method in brief: as §1
# [6] = target: Gal(b1-3)GalNAc(a1-3)[Fuc(a1-2)]Gal(b1-4)Glc
# Method in brief: as §1
# [7] = target: Gal(b1-3)GalNAc(a1-3)[Fuc(a1-2)]Gal(b1-4)GlcNAc
# Method in brief: as §1
# [8] = target: Gal(b1-3)GalNAc(b1-3)Gal(a1-4)Gal(b1-4)Glc
# Method in brief: as §1
# [9] = target: Gal(b1-3)GalNAc(b1-4)Gal(b1-4)Glc
# Method in brief: as §1
# [10] = target: Gal(b1-3)GalNAc(b1-4)[Neu5Ac(a2-3)]Gal(b1-4)Glc
# Method in brief: as §1
# Gal(b1-3)GlcNAc = target: Gal(b1-3)GlcNAc
# Method in brief: as §1
# [11] = target: Gal(b1-3)GlcNAc(b1-2)Man(a1-3)[Gal(b1-3)GlcNAc(b1-2)Man(a1-6)]Man(b1-4)GlcNAc(b1-4)GlcNAc
# Method in brief: as §1
# [12] = target: Gal(b1-3)GlcNAc(b1-2)Man(a1-3)[Gal(b1-3)GlcNAc(b1-2)Man(a1-6)]Man(b1-4)GlcNAc(b1-4)[Fuc(a1-6)]GlcNAc
# Method in brief: as §1
# [13] = target: Gal(b1-3)GlcNAc(b1-3)Gal(b1-3)GlcNAc
# Method in brief: as §1
# [14] = target: Gal(b1-3)GlcNAc(b1-3)Gal(b1-4)Glc
# Method in brief: as §1
# [15] = target: Gal(b1-3)GlcNAc(b1-3)Gal(b1-4)GlcNAc
# Method in brief: as §1
# [16] = target: Gal(b1-3)[Fuc(a1-4)]GlcNAc
# Method in brief: as §1
# [17] = target: Gal(b1-3)[Fuc(a1-4)]GlcNAc(b1-2)Man(a1-3)[Gal(b1-3)[Fuc(a1-4)]GlcNAc(b1-2)Man(a1-6)]Man(b1-4)GlcNAc(b1-4)GlcNAc
# Method in brief: as §1
# [18] = target: Gal(b1-3)[Fuc(a1-4)]GlcNAc(b1-2)Man(a1-3)[Gal(b1-3)[Fuc(a1-4)]GlcNAc(b1-2)Man(a1-6)]Man(b1-4)GlcNAc(b1-4)[Fuc(a1-6)]GlcNAc
# Method in brief: as §1
# [19] = target: Gal(b1-3)[Fuc(a1-4)]GlcNAc(b1-3)Gal(b1-3)[Fuc(a1-4)]GlcNAc
# Method in brief: as §1
# [20] = target: Gal(b1-3)[Fuc(a1-4)]GlcNAc(b1-3)Gal(b1-4)GlcNAc
# Method in brief: as §1
# [21] = target: Gal(b1-3)[Fuc(a1-4)]GlcNAc(b1-3)Gal(b1-4)[Fuc(a1-3)]GlcNAc
# Method in brief: as §1
# [22] = target: Gal(b1-3)[GlcNAc(b1-6)]GalNAc
# Method in brief: as §1
# [23] = target: Gal(b1-3)[Neu5Ac(a2-6)]GalNAc
# Method in brief: as §1
# [24] = target: Gal(b1-3)[Neu5Ac(a2-6)]GlcNAc(b1-6)Gal(b1-4)Glc
# Method in brief: as §1
# [25] = target: Gal(b1-3)[Neu5Ac(b2-6)]GalNAc
# Method in brief: as §1
# [26] = target: Gal(b1-4)GalNAc(a1-3)[Fuc(a1-2)]Gal(b1-4)GlcNAc
# Method in brief: as §1
# [27] = target: Gal(b1-4)GalNAc(b1-3)[Fuc(a1-2)]Gal(b1-4)GlcNAc
# Method in brief: as §1
# Gal(b1-4)Glc = target: Gal(b1-4)Glc
# Method in brief: as §1
# Gal(b1-4)Glc6S = target: Gal(b1-4)Glc6S
# Method in brief: as §1
# Gal(b1-4)GlcNAc = target: Gal(b1-4)GlcNAc
# Method in brief: as §1
# [28] = target: Gal(b1-4)GlcNAc(a1-6)Gal(b1-4)GlcNAc
# Method in brief: as §1
# [29] = target: Gal(b1-4)GlcNAc(b1-2)Man(a1-3)Man(b1-4)GlcNAc(b1-4)GlcNAc
# Method in brief: as §1
# [30] = target: Gal(b1-4)GlcNAc(b1-2)Man(a1-3)[Gal(b1-4)GlcNAc(b1-2)Man(a1-6)]Man(b1-4)GlcNAc(b1-4)GlcNAc
# Method in brief: as §1
# [31] = target: Gal(b1-4)GlcNAc(b1-2)Man(a1-3)[Gal(b1-4)GlcNAc(b1-2)Man(a1-6)]Man(b1-4)GlcNAc(b1-4)[Fuc(a1-6)]GlcNAc
# Method in brief: as §1
# [32] = target: Gal(b1-4)GlcNAc(b1-2)Man(a1-3)[Man(a1-6)]Man(b1-4)GlcNAc(b1-4)GlcNAc
# Method in brief: as §1
# [33] = target: Gal(b1-4)GlcNAc(b1-2)Man(a1-6)Man(b1-4)GlcNAc(b1-4)GlcNAc
# Method in brief: as §1
# [34] = target: Gal(b1-4)GlcNAc(b1-2)Man(a1-6)[Man(a1-3)]Man(b1-4)GlcNAc(b1-4)GlcNAc
# Method in brief: as §1
# [35] = target: Gal(b1-4)GlcNAc(b1-2)[Gal(b1-4)GlcNAc(b1-4)]Man(a1-3)[Gal(b1-4)GlcNAc(b1-2)Man(a1-6)]Man(b1-4)GlcNAc(b1-4)GlcNAc
# Method in brief: as §1
# [36] = target: Gal(b1-4)GlcNAc(b1-3)Gal(b1-3)GlcNAc
# Method in brief: as §1
# [37] = target: Gal(b1-4)GlcNAc(b1-3)Gal(b1-4)Glc
# Method in brief: as §1
# [38] = target: Gal(b1-4)GlcNAc(b1-3)Gal(b1-4)GlcNAc
# Method in brief: as §1
# [39] = target: Gal(b1-4)GlcNAc(b1-3)Gal(b1-4)GlcNAc(b1-3)Gal(b1-4)GlcNAc
# Method in brief: as §1
# [40] = target: Gal(b1-4)GlcNAc(b1-3)Gal(b1-4)[Fuc(a1-3)]GlcNAc(b1-3)Gal(b1-4)[Fuc(a1-3)]GlcNAc
# Method in brief: as §1
# [41] = target: Gal(b1-4)GlcNAc(b1-3)GalNAc
# Method in brief: as §1
# [42] = target: Gal(b1-4)GlcNAc(b1-3)[Gal(b1-4)GlcNAc(b1-6)]Gal(b1-4)GlcNAc
# Method in brief: as §1
binder,measurement,setting,value
B1,glycan array binding signal (z-score),Gal(a1-2)Gal,-0.462
same,glycan array binding signal (z-score),Gal(a1-3)Gal,-0.105
same,glycan array binding signal (z-score),Gal(a1-3)Gal(b1-3)GlcNAc,-0.514
same,glycan array binding signal (z-score),Gal(a1-3)Gal(b1-4)Glc,0.489
same,glycan array binding signal (z-score),Gal(a1-3)Gal(b1-4)GlcNAc,-0.212
same,glycan array binding signal (z-score),[1],-0.144
same,glycan array binding signal (z-score),[2],-0.396
same,glycan array binding signal (z-score),Gal(a1-3)GalNAc,-0.236
same,glycan array binding signal (z-score),[3],-0.363
same,glycan array binding signal (z-score),Gal(a1-4)Gal(b1-4)Glc,-0.255
same,glycan array binding signal (z-score),Gal(a1-4)Gal(b1-4)GlcNAc,-0.304
same,glycan array binding signal (z-score),[4],-0.349
same,glycan array binding signal (z-score),Gal(a1-4)GlcNAc,0.152
same,glycan array binding signal (z-score),Gal(a1-6)Glc,-0.628
same,glycan array binding signal (z-score),Gal(b1-2)Gal,-0.259
same,glycan array binding signal (z-score),Gal(b1-3)Gal,-0.364
same,glycan array binding signal (z-score),Gal(b1-3)Gal(b1-4)GlcNAc,-0.135
same,glycan array binding signal (z-score),[5],0.099
same,glycan array binding signal (z-score),Gal(b1-3)GalNAc,-0.036
same,glycan array binding signal (z-score),[6],-0.221
same,glycan array binding signal (z-score),[7],0.064
same,glycan array binding signal (z-score),[8],-0.274
same,glycan array binding signal (z-score),[9],-0.508
same,glycan array binding signal (z-score),[10],0.13
same,glycan array binding signal (z-score),Gal(b1-3)GlcNAc,-0.556
same,glycan array binding signal (z-score),[11],0.106
same,glycan array binding signal (z-score),[12],-0.217
same,glycan array binding signal (z-score),[13],-0.271
same,glycan array binding signal (z-score),[14],-0.508
same,glycan array binding signal (z-score),[15],-0.134
same,glycan array binding signal (z-score),[16],-0.131
same,glycan array binding signal (z-score),[17],-0.574
same,glycan array binding signal (z-score),[18],-0.275
same,glycan array binding signal (z-score),[19],-0.313
same,glycan array binding signal (z-score),[20],-0.317
same,glycan array binding signal (z-score),[21],-0.458
same,glycan array binding signal (z-score),[22],-0.125
same,glycan array binding signal (z-score),[23],-0.014
same,glycan array binding signal (z-score),[24],-0.191
same,glycan array binding signal (z-score),[25],-0.121
same,glycan array binding signal (z-score),[26],-0.412
same,glycan array binding signal (z-score),[27],-0.388
same,glycan array binding signal (z-score),Gal(b1-4)Glc,-0.129
same,glycan array binding signal (z-score),Gal(b1-4)Glc6S,-0.35
same,glycan array binding signal (z-score),Gal(b1-4)GlcNAc,-0.246
same,glycan array binding signal (z-score),[28],-0.055
same,glycan array binding signal (z-score),[29],-0.484
same,glycan array binding signal (z-score),[30],0.081
same,glycan array binding signal (z-score),[31],-0.015
same,glycan array binding signal (z-score),[32],-0.375
same,glycan array binding signal (z-score),[33],-0.386
same,glycan array binding signal (z-score),[34],-0.464
same,glycan array binding signal (z-score),[35],-0.413
same,glycan array binding signal (z-score),[36],-0.249
same,glycan array binding signal (z-score),[37],0.104
same,glycan array binding signal (z-score),[38],-0.417
same,glycan array binding signal (z-score),[39],-0.305
same,glycan array binding signal (z-score),[40],-0.574
same,glycan array binding signal (z-score),[41],-0.376
same,glycan array binding signal (z-score),[42],-0.329
